About 17,000 (4.4%) of roughly 390,000 compounds were called active. The inconclusive results got no clear call from the source; some entries with a clear call stand among them for comparison. Calls follow the shape of the dose curve; as a rule, active = well fitted inhibition curve with a large enough effect; inconclusive = small, poorly fitted or top-dose-only effect; inactive = no such curve, though single readings can be large or run the other way. Potencies of inconclusive entries are doubtful fits and often do not repeat.
molecular target: Lysine-specific demethylase 4A (Homo sapiens) (UniProt O75164); experiment: qHTS Assay for Inhibitors of JMJD2A-Tudor Domain; conditions: AlphaScreen JMJD2A-Tudor / H3K4me3 peptide binding; activity change, negative = inhibition: at 114 µM (top of the series); also: nearly all actives have a fitted effect of over 50% in size
Chain of UniProt O75164 (O75164 whole entry, looked up, the tested form may be a part): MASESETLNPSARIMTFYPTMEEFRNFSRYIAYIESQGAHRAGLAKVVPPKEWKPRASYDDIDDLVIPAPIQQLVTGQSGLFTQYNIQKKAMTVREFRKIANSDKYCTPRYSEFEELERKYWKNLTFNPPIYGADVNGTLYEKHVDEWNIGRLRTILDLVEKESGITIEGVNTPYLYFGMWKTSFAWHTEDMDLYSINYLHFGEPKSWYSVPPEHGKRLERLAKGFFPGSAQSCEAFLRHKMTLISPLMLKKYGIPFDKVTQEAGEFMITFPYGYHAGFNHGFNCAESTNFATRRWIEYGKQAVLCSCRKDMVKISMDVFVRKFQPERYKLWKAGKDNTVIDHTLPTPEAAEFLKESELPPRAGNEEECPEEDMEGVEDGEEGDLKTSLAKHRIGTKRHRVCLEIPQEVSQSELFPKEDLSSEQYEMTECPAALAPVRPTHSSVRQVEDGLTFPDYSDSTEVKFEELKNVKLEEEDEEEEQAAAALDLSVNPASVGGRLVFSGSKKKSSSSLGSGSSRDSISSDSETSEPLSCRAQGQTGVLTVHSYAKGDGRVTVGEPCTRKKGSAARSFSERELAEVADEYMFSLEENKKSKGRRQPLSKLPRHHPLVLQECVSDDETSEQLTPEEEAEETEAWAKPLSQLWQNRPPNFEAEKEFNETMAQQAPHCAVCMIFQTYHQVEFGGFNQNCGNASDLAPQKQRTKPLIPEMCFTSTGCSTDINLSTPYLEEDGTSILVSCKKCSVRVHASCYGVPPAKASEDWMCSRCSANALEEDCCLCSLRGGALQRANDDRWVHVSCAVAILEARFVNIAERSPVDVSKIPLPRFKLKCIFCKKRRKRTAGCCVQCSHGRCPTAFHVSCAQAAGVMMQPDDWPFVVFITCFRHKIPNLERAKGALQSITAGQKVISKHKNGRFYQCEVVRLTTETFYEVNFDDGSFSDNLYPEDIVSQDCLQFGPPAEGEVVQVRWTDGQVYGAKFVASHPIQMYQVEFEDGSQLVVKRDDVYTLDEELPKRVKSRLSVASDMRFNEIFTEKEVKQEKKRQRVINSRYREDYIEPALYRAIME
% is scaled to controls: 0 for no effect and ±100 for the full control effect; potency is read from the fitted curve at half-maximal effect; tags tell the direction and shape of the fitted curve.

Row | SMILES | Potency | activity change, negative = inhibition
1 | CCN1C(=O)/C(=c2\sc3nc(=O)c(Cc4ccccc4)nn3c2=O)c2ccccc21 | inconclusive: 70.8 µM [inhibitor, partial curve] | 
2 | O=C(NCc1ccco1)C1CCN(C(=O)c2cc3sccc3n2Cc2ccc(F)cc2)CC1 | inconclusive: 39.8 µM [inhibitor, partial curve] | 
3 | COc1cc2ccccc2cc1C(=O)N(CCN(C)C)c1nc2c(F)cc(F)cc2s1 | inconclusive: 70.8 µM [inhibitor, partial curve, poor fit] | 
4 | O=c1cc(OCc2ccccc2)cc[nH]1 | active: 11.2 µM | 
5 | CCc1ccc(NC(=O)C(C)OC(=O)CN2C(=O)NC3(CCCC3)C2=O)cc1 (configuration not stated) | inconclusive: 3.16 µM [inhibitor, partial curve, poor fit] | 
6 | CSc1ccc(CCNC(=O)c2c(C)oc3ncn(C)c(=O)c23)cc1 | inactive | 
7 | N#Cc1c(NC(=O)c2ccc([N+](=O)[O-])o2)sc2c1CCC2 | inconclusive: 50.1 µM [inhibitor, partial curve] | 
8 | CC1C[N+](=C2C=C(N3CCOCC3)CC(C)(C)C2)CC(C)O1 (configuration not stated) | inconclusive: 15.8 µM [inhibitor, full curve, poor fit] | 
9 | CC(=O)c1ccc(N2CCN(c3ccc4cc(S(=O)(=O)N5CCC(C)CC5)ccc4n3)CC2)cc1 | inconclusive: 56.2 µM [inhibitor, partial curve] | 
10 | Cc1ccc(OCCn2ccnc2)c([N+](=O)[O-])c1 | inconclusive: 39.8 µM [inhibitor, single point] | 
11 | Cc1ccc2c(c1)nnn2C1CCN(S(=O)(=O)c2ccc(C(=O)N3C(C)CCCC3C)cc2)CC1 (configuration not stated) | active: 50.1 µM | 
12 | Cc1cccc([C@@H]2[C@@H]3C(=O)N(Cc4ccccc4)C(=O)[C@@H]3[C@]3(Cc4ccccc4)C(=O)N(c4ccc(C(F)(F)F)cc4)C(=O)N23)c1 | inactive | 
13 | Cc1cccc2sc(N(CCN(C)C)C(=O)/C=C/c3cccs3)nc12 | inconclusive: 15.8 µM [inhibitor, single point] | 
14 | CC1(C)Cc2c(cnn2-c2ccc(F)cc2)C(NC(=O)CCN2CCCC2=O)C1 (configuration not stated) | inconclusive: 11.2 µM [inhibitor, partial curve, poor fit] | 
15 | CC(=O)c1c(C)oc2ccc(NS(=O)(=O)c3ccc(O)c(C(=O)O)c3)cc12 | inconclusive: 79.4 µM [inhibitor, single point] | 
16 | CC(C)Cn1c(-c2ccco2)csc1=Nc1cccnc1 | inactive | 
17 | C[C@H](CO)N1C[C@H](C)[C@@H](CN(C)C(=O)NC2CCCCC2)Oc2ccc(NS(=O)(=O)c3cn(C)cn3)cc2C1=O | inactive | 
18 | CC1CCCC(NC(=O)COC(=O)c2c[nH]c(=O)[nH]c2=O)C1C (configuration not stated) | inconclusive: 79.4 µM [inhibitor, single point] | 
19 | COCCCN1CC23C=CC(O2)C(C(=O)O)C3C1=O (configuration not stated) | inconclusive: 20 µM [inhibitor, full curve] | 
20 | CCn1c(CN2CCN(c3ccc(OC)cc3)CC2)nc2cc(S(=O)(=O)N(C)C)ccc21 | inconclusive: 56.2 µM [inhibitor, partial curve] | 
21 | CCCCNc1cc(C)nc(NCc2ccccc2)n1 | inconclusive: 31.6 µM [inhibitor, single point] | 
22 | CCc1ccc(NC(=O)Cn2c(=O)c3cc(Cl)ccc3n3nncc23)cc1 | inactive | 
23 | O=C(N/N=C\c1cccnc1)c1cc(-c2ccc(Cl)s2)[nH]n1 | active: 56.2 µM | 

Row | SMILES | Potency | activity change, negative = inhibition
24 | CCN(Cc1ccccc1)c1ccc(/C=N/N=C(N)N)cc1 | active: 35.5 µM | 
25 | O=C(CNCc1ccccc1Cl)Nc1ccc(C(=O)N2CCCCC2)cc1 | inconclusive: 7.08 µM [inhibitor, full curve, poor fit] | 
26 | COc1ccccc1NC(=O)C(=O)NCC(c1cccnc1)N1CCc2ccccc2C1 (configuration not stated) | inactive | 
27 | O=C(CSc1nc2ccccc2c(=O)n1CCCN1CCOCC1)Nc1ccc2c(c1)OCO2 | inactive | 
28 | CCc1nn2cc(C(=O)c3ccccc3O)cnc2c1-c1ccc(F)cc1 | inconclusive: 28.2 µM [inhibitor, full curve, poor fit] | 
29 | COC(=O)c1ccc(NC(=O)CCc2c(C)nn(-c3ccc(N4CCCCC4)nn3)c2C)cc1 | inconclusive: 14.1 µM [inhibitor, full curve, poor fit] | 
30 | Clc1ccc(C=NN2CCCCCC2)cc1 | active: 35.5 µM | 
31 | Cc1cc(C)n2nc(C(=O)N/N=C/c3c4ccccc4cc4ccccc34)nc2n1 | inconclusive: 79.4 µM [inhibitor, single point] | 
32 | COc1ccc(C2C(C(=O)c3ccco3)=C(O)C(=O)N2CCN2CCOCC2)c(OC)c1 (configuration not stated) | inconclusive: 31.6 µM [inhibitor, single point] | 
33 | CN(C)c1oc(-c2ccccc2Cl)nc1P(=O)(c1ccccc1)c1ccccc1 | active: 56.2 µM | 
34 | O=c1c(Cl)c(N/N=C/c2ccc(Br)cc2)cnn1-c1ccccc1 | inconclusive: 100 µM [inhibitor, single point] | 
35 | CC(=O)Nc1ccc(SCCN2CCN(CCc3ccccc3)CCC2=O)cc1 | inconclusive: 50.1 µM [inhibitor, partial curve] | 
36 | CC1(C)CC=CC(COC(=O)c2ccccc2C(=O)O)C1 (configuration not stated) | inactive | 
37 | CC(C)(C)OC(=O)N1CCC(c2c(C(=O)Nc3ccc4c(c3)OCO4)cnn2-c2ccccc2)CC1 | inconclusive: 50.1 µM [inhibitor, partial curve] | 
38 | CCc1nn(CC(=O)NC(C)CC)c(=O)c2cc3occc3n12 (configuration not stated) | inactive | 
39 | Cc1ccccc1NC(=O)c1ccc(N(Cc2ccccc2)S(C)(=O)=O)cc1 | inactive | 
40 | CCOC(=O)N1CCN(C(=O)c2ccc3c(c2)N(Cc2ccc(C)cc2)CCS3)CC1 | inconclusive: 63.1 µM [inhibitor, partial curve] | 
41 | Cc1sc2ncnc(Oc3ccc(-n4ccnc4)cc3)c2c1C | inconclusive: 56.2 µM [inhibitor, partial curve] | 
42 | COCCNC(=O)c1[nH]c2cc(C)ccc2c1Sc1ccc(Cl)cc1 | inactive | 
43 | CC1=Nc2cc([N+](=O)[O-])ccc2NC(C)(C)C1 | inconclusive: 50.1 µM [inhibitor, partial curve] | 
44 | COc1cccc(CC(C(=O)Nc2cc(C)ccc2C)c2nn[nH]n2)c1OC (configuration not stated) | inconclusive: 79.4 µM [inhibitor, partial curve] | 
45 | O=C(NNC(=S)NC1CCCCC1)c1ccc(Cl)s1 | inconclusive: 79.4 µM [inhibitor, single point] | 
46 | COc1ccccc1/C=C/CN1CC(C)OC(C)C1 (configuration not stated) | active: 3.16 µM | 

Row | SMILES | Potency | activity change, negative = inhibition
47 | O=C(NC(=S)NNC(=O)c1ccccc1F)c1cccnc1 | active: 15.8 µM | 
48 | CCOc1cc(S(=O)(=O)NCCc2c(C)[nH]c3ccc(C)cc23)ccc1Br | inconclusive: 35.5 µM [inhibitor, partial curve] | 
49 | COc1ccc(N2CCN(C(=O)CSCc3ccc(C)cc3)CC2)cc1 | inconclusive: 39.8 µM [inhibitor, partial curve] | 
50 | COc1ccc(-c2nc(CSCC(=O)N3CCN(c4ccccc4)CC3)c(C)o2)cc1 | inconclusive: 63.1 µM [inhibitor, partial curve] | 
51 | COc1ccc(C2Nc3ccccc3C(=O)N2Cc2ccco2)cc1COc1c(C)cccc1C (configuration not stated) | inconclusive: 50.1 µM [inhibitor, partial curve] | 
52 | S=c1[nH]c(-c2ccccc2)cn1/N=C/c1ccccc1Br | inactive | 
53 | Cc1cs/c(=N\N=C2CCCCC2)n1Cc1ccco1 | inconclusive: 56.2 µM [inhibitor, partial curve] | 
54 | CCCn1c(SCC(=O)NCC(=O)Nc2ccc(F)c(F)c2F)nc2ccccc2c1=O | inconclusive: 100 µM [inhibitor, single point] | 
55 | Cc1ccc(S(=O)(=O)c2nc(-c3cccs3)oc2NCc2cccnc2)cc1 | inconclusive: 28.2 µM [inhibitor, full curve, poor fit] | 
56 | CN(CP(=O)(O)C(O)c1ccccc1)S(C)(=O)=O (configuration not stated) | inconclusive: 39.8 µM [inhibitor, single point] | 
57 | CCCCC1=CC2=CC(=O)C(C)(OC(=O)CC)C(=O)C2=CN1CCc1c[nH]c2ccccc12 (configuration not stated) | inconclusive: 44.7 µM [inhibitor, partial curve] | 
58 | CCCn1c(C2CCCN2c2nc(-c3ccc(OC)cc3)cs2)nc2ccccc21 (configuration not stated) | inconclusive: 89.1 µM [inhibitor, partial curve] | 
59 | CC(C)OP(=O)(OC(C)C)C1(NS(=O)(=O)c2ccc(Cl)cc2)C=C(Cl)C(=O)C(Cl)=C1 | inactive | 
60 | COc1ccc(Cl)c2sc(N(CCN(C)C)C(=O)c3ccc4c(c3)OCCO4)nc12 | inconclusive: 50.1 µM [inhibitor, partial curve] | 
61 | Nc1c2c(nc3sc4c(c13)CCCCC4)CCCCC2 | inconclusive: 31.6 µM [inhibitor, partial curve] | 
62 | CCCCNC(=S)NCCN1CCN(C(=S)NCCCC)CC1 | inactive | 
63 | CCOC(=O)C1CCN(C(C(=O)NC2CCCCC2)c2ccc(OC)cc2)CC1 (configuration not stated) |  | inactive: -2.29% [at 11.4 µM]
64 | COc1cc(-c2cc(C(=O)Nc3ccc(N4CCOCC4)cc3)c3ccccc3n2)cc(OC)c1OC | inconclusive: 20 µM [inhibitor, full curve] | 
65 | CCn1c(CSc2nc3ccccc3s2)nnc1SCC(=O)c1ccc(O)cc1O | inconclusive: 89.1 µM [inhibitor, single point] | 
66 | CC(=O)N1CCN(c2ccc(NCc3ccc(C)cc3)cc2)CC1 | inconclusive: 44.7 µM [inhibitor, partial curve] | 
67 | Cc1c(Cl)cccc1NC(=S)N(CCN(C)C)C(C)c1ccco1 (configuration not stated) | inconclusive: 100 µM [inhibitor, partial curve, poor fit] | 
